Data on ten compounds can be found in PubChem BioAssay (NCATS).

Some of the results follow. Further columns of the screen follow, without active or inactive calls. Compounds called inactive in the main read-out are mostly missing here. The note in brackets gives the kind of curve behind each potency; many fits are weak.
Tags describe the fitted curve by direction and shape.

The target of this test is Phenylethanolamine N-methyltransferase (Homo sapiens) (UniProt P11086). The test can be described thus: Confirmatory Screen for Target Class Profiling of Small Molecule Inhibitors of Methyltransferases (AID 1745852).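 Further: inhibitor potency for blocking SAH production.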 The following applies: MTase-Glo luminescence, SAH detection, recombinant enzyme; measured here: PNMT inhibition potency.
UniProt P11086, sequence (P11086 whole entry, looked up): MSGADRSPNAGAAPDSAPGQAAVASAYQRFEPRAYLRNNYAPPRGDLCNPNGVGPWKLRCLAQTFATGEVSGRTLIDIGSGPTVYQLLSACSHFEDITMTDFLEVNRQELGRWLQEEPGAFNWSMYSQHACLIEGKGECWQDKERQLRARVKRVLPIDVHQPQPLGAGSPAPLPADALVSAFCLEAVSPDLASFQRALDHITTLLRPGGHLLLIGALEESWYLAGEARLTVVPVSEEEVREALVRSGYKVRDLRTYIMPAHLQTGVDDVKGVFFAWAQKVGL
By IC50 is commonly meant the midpoint of a concentration-inhibition curve. As for `c1ccc(CNc2cc(-c3cc(N4CCCCC4)ncn3)c3cc[nH]c3n2)nc1`, the IC50 is 24.1 µM [falling, single point]. `Cc1coc2c1C(=O)C(=O)c1c-2ccc2c1CCCC2(C)C`: the 50% inhibitory concentration (IC50) was 19.2 µM [falling, partial curve]. For the compound `O=C(NCc1cccc(Cl)c1)c1sc(=S)n2c1[nH]c(=O)c1cc3c(cc12)OCO3`, the IC50 is 27.1 µM [falling, single point]. With `CC(C)n1cc(-c2ccc(Oc3ccccc3)cc2)c2c(N)ncnc21`, the IC50 was 15.2 µM [falling, partial curve].

Consider `CNS(=O)(=O)CC1CCC(N(C)c2ncnc3[nH]ccc23)CC1` (stereo not given), for which the concentration for half-maximal inhibition (IC50) is 12.1 µM [falling, partial curve].

For the compound `CC1(C)[C@@H](O)CC[C@]2(C)[C@H]3CC=C4[C@@H]5C[C@](C)(C(=O)O)CC[C@]5(C)CC[C@@]4(C)[C@]3(C)CC[C@@H]12`, the IC50 was 24.1 µM [falling, partial curve]. On to `O=C1NCc2c1c1c3ccccc3[nH]c1c1[nH]c3ccccc3c21`, for which the IC50 is 19.3 µM [falling, partial curve, poor fit]. `Nc1ncnc2c1c(-c1cnc3[nH]ccc3c1)nn2C1CCCC1`: the half-inhibitory concentration (IC50) is 21.5 µM [falling, partial curve]. Turning to `S=c1ssc2c1CCC2`, the IC50 is 10.8 µM [falling, partial curve]. In the case of `CC(C)n1nc(Cc2cccc3ccccc23)c2c(N)ncnc21`, the IC50 was 19.2 µM [falling, partial curve].
